Test results published in the BET-seq Pho4 binding data (Le et al. 2018).
The other results are listed elsewhere or left out. These are noisy estimates, calculated here from bound and input reads.

These sequences were tested against T1, Pho4 (S. cerevisiae) (UniProt P07270) (assay: relative binding free energy (BET-seq); higher = weaker binding). Conditions: reference: library average.
T1 sequence: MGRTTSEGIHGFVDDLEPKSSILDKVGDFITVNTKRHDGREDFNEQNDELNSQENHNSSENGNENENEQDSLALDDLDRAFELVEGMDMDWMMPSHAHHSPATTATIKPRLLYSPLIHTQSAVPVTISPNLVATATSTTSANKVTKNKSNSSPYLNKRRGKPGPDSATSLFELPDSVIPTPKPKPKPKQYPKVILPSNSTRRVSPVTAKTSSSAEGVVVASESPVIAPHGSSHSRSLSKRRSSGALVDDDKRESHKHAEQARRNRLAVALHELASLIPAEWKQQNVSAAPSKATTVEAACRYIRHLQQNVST
With TGTTGCACGTGATGTC the “relative binding free energy” value was 0.21 kcal/mol.
With AAGGGCACGTGATGTG the “relative binding free energy” value was 0.08 kcal/mol.
In the case of ATGTGCACGTGAAGTT, the “relative binding free energy” value is reported as 0.16 kcal/mol.
In the case of TAAGACACGTGCGTTT, the “relative binding free energy” value is reported as 0.01 kcal/mol.
For TTGCACACGTGGAGTA, the “relative binding free energy” value was 0.08 kcal/mol.
For CTGAACACGTGAAGGT, the “relative binding free energy” value was 0.37 kcal/mol.
For AGTTTCACGTGACGTA, the “relative binding free energy” value was 0.36 kcal/mol.
In the case of TAAGTCACGTGGTACT, the “relative binding free energy” value is reported as 0.04 kcal/mol.
GTAGACACGTGCGGGG was tested, and the “relative binding free energy” value was -0.17 kcal/mol.
For TAGTACACGTGTGATT, the “relative binding free energy” value was 0.18 kcal/mol.
For GGGCACACGTGTGAGG, the “relative binding free energy” value was 0.15 kcal/mol.
GTTTGCACGTGGGTAG was tested, and the “relative binding free energy” value was -0.06 kcal/mol.
With ATGGCCACGTGGGTGG the “relative binding free energy” value was -0.17 kcal/mol.
In the case of GAAAGCACGTGGACGG, the “relative binding free energy” value is reported as 0.08 kcal/mol.
For AACTACACGTGGGTGG, the “relative binding free energy” value was -0.04 kcal/mol.
TGGGACACGTGTGGAC was tested, and the “relative binding free energy” value was 0.18 kcal/mol.
With GTGGACACGTGGGTGC the “relative binding free energy” value was 0.03 kcal/mol.
TTACTCACGTGTGTGC was tested, and the “relative binding free energy” value was 0.23 kcal/mol.
For CGTGTCACGTGTTGTC, the “relative binding free energy” value was 0.07 kcal/mol.
With AGGTACACGTGATGTA the “relative binding free energy” value was 0.12 kcal/mol.
AGGTTCACGTGCTTTG was tested, and the “relative binding free energy” value was 0.33 kcal/mol.
In the case of GGTCACACGTGGTGGG, the “relative binding free energy” value is reported as 0.09 kcal/mol.
GTGTGCACGTGTCGGT was tested, and the “relative binding free energy” value was 0.06 kcal/mol.
In the case of TATGGCACGTGGATGG, the “relative binding free energy” value is reported as -0.18 kcal/mol.
TTGCGCACGTGAATTG was tested, and the “relative binding free energy” value was 0.11 kcal/mol.
For GTATTCACGTGCGGTG, the “relative binding free energy” value was 0.22 kcal/mol.
With CGAGGCACGTGAGGTG the “relative binding free energy” value was 0.06 kcal/mol.
ATTTGCACGTGTTTGG was tested, and the “relative binding free energy” value was 0.09 kcal/mol.
In the case of TCGCTCACGTGTGGGA, the “relative binding free energy” value is reported as 0.3 kcal/mol.
For TTTGACACGTGGTGCT, the “relative binding free energy” value was -0.05 kcal/mol.
GATGACACGTGAAGTT was tested, and the “relative binding free energy” value was 0.37 kcal/mol.
In the case of GGAGACACGTGGGTTG, the “relative binding free energy” value is reported as -0.15 kcal/mol.
With GTGTCCACGTGAATGT the “relative binding free energy” value was 0.22 kcal/mol.
For ATTGTCACGTGAGTTA, the “relative binding free energy” value was 0.25 kcal/mol.
For TGTGTCACGTGGCGTC, the “relative binding free energy” value was -0.1 kcal/mol.
TTAAGCACGTGTAGGG was tested, and the “relative binding free energy” value was -0.09 kcal/mol.
In the case of TTATTCACGTGGTAAA, the “relative binding free energy” value is reported as 0.13 kcal/mol.
For TTTGGCACGTGATGGA, the “relative binding free energy” value was -0.02 kcal/mol.
In the case of ATTACCACGTGGGGGG, the “relative binding free energy” value is reported as -0.26 kcal/mol.
In the case of ATGGTCACGTGGTAAT, the “relative binding free energy” value is reported as 0.17 kcal/mol.
AGGTACACGTGGATTA was tested, and the “relative binding free energy” value was 0.11 kcal/mol.
GGCTGCACGTGGTTTG was tested, and the “relative binding free energy” value was 0.08 kcal/mol.
With TGGCTCACGTGGGCAT the “relative binding free energy” value was 0.1 kcal/mol.
With TTCCGCACGTGGAGGG the “relative binding free energy” value was -0.1 kcal/mol.
With TCGGTCACGTGGGGAT the “relative binding free energy” value was 0.07 kcal/mol.
With GTAATCACGTGAGTCA the “relative binding free energy” value was 0.5 kcal/mol.
TCTTACACGTGTGGAT was tested, and the “relative binding free energy” value was 0.11 kcal/mol.
For GTGAACACGTGCTGTT, the “relative binding free energy” value was -0.02 kcal/mol.
For TTTGTCACGTGGTAAA, the “relative binding free energy” value was 0.2 kcal/mol.
For AAGTGCACGTGGGGAG, the “relative binding free energy” value was -0.26 kcal/mol.
GAGGACACGTGTTGCA was tested, and the “relative binding free energy” value was 0.24 kcal/mol.
In the case of GATTTCACGTGGAGTG, the “relative binding free energy” value is reported as 0.28 kcal/mol.
TGTGTCACGTGGTTCT was tested, and the “relative binding free energy” value was -0.14 kcal/mol.
In the case of TGCCGCACGTGTGGCG, the “relative binding free energy” value is reported as 0.04 kcal/mol.
CAGTTCACGTGGGGGG was tested, and the “relative binding free energy” value was 0.16 kcal/mol.
GGAGGCACGTGCTAGT was tested, and the “relative binding free energy” value was -0.22 kcal/mol.
TTGGTCACGTGTCCGT was tested, and the “relative binding free energy” value was 0.06 kcal/mol.
GTGAGCACGTGTGTTT was tested, and the “relative binding free energy” value was -0.05 kcal/mol.
With GGTTGCACGTGAGTGC the “relative binding free energy” value was 0.34 kcal/mol.
In the case of CTAGGCACGTGTACGG, the “relative binding free energy” value is reported as 0.01 kcal/mol.
For AATTGCACGTGTAGCG, the “relative binding free energy” value was 0.14 kcal/mol.
GGGAACACGTGAGTGT was tested, and the “relative binding free energy” value was 0.23 kcal/mol.
For GGTGCCACGTGGTGAT, the “relative binding free energy” value was -0.06 kcal/mol.
For GTAGGCACGTGCGGCC, the “relative binding free energy” value was 0.13 kcal/mol.
ATGATCACGTGATAGG was tested, and the “relative binding free energy” value was 0.21 kcal/mol.
TGAGCCACGTGGGGGT was tested, and the “relative binding free energy” value was -0.24 kcal/mol.
With GTATCCACGTGGTGCG the “relative binding free energy” value was 0.01 kcal/mol.
In the case of TATTTCACGTGTTGCC, the “relative binding free energy” value is reported as 0.34 kcal/mol.
GTGGTCACGTGCTTAT was tested, and the “relative binding free energy” value was 0.13 kcal/mol.
In the case of AATGTCACGTGTCTAT, the “relative binding free energy” value is reported as 0.2 kcal/mol.
AGGCACACGTGGTTGT was tested, and the “relative binding free energy” value was 0 kcal/mol.
TGGTTCACGTGAAGAA was tested, and the “relative binding free energy” value was 0.22 kcal/mol.
For CTATACACGTGGTATT, the “relative binding free energy” value was 0.02 kcal/mol.
